{"source": "the supplement of paper PMC8821664", "note": "Where a name gives a salt, the structure may show the parent alone. The list shows a part of the results. Most values come without repeats; read them as rough.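 Note: monoclonal Beas-2B line stably carrying CMV promoter-driven AQP5-HiBiT, 5,000 cells per well in 384-well plates, lytic HiBiT plus LgBiT NanoLuc luminescence, FDA-approved drug library screen.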"}
{"tested_on": "Beas-2B AQP5-HiBiT reporter cells", "assay": "AQP5-HiBiT luminescence relative to vehicle (ratio to vehicle); higher = higher AQP5-HiBiT protein abundance", "conditions": "10 µM; 18 h"}
{"compound": "Cc1ccc(C)c(OCCCC(C)(C)C(=O)O)c1", "note": "[Gemfibrozil]", "AQP5-HiBiT luminescence": 0.591}
{"compound": "O=c1[nH]c(=O)n([C@H]2C[C@H](O)[C@@H](CO)O2)cc1F", "note": "[Floxuridine]", "AQP5-HiBiT luminescence": 0.583}
{"compound": "CC(=O)OCC1=C(C(=O)O)N2C(=O)[C@@H](NC(=O)Cc3cccs3)[C@H]2SC1", "note": "[Cephalothin sodium]", "AQP5-HiBiT luminescence": 2.05}
{"compound": "Cc1ccc(C(=O)Nc2ccc(CN3CCN(C)CC3)c(C(F)(F)F)c2)cc1C#Cc1cnc2cccnn12", "AQP5-HiBiT luminescence": 0.271}
{"compound": "C[C@H]1[C@H](NC(=O)/C(=N\\OC(C)(C)C(=O)O)c2csc(N)n2)C(=O)N1S(=O)(=O)O", "note": "[Aztreonam]", "AQP5-HiBiT luminescence": 0.879}
{"compound": "Clc1ccccc1C(c1ccccc1)(c1ccccc1)n1ccnc1", "note": "[Clotrimazole]", "AQP5-HiBiT luminescence": 1.01}
{"compound": "CC(=O)CCCCn1c(=O)c2c(ncn2C)n(C)c1=O", "note": "[Pentoxifylline]", "AQP5-HiBiT luminescence": 1.02}
{"compound": "CCc1cc2c(cc1CC)CC(NC[C@H](O)c1ccc(O)c3[nH]c(=O)ccc13)C2", "note": "[Indacaterol]", "AQP5-HiBiT luminescence": 0.829}
{"compound": "CO/N=C(\\C(=O)N[C@@H]1C(=O)N2C(C(=O)O)=C(COC(N)=O)CS[C@H]12)c1ccco1", "note": "[Cefuroxime sodium]", "AQP5-HiBiT luminescence": 0.781}
{"compound": "O=C1CN(/N=C/c2ccc(-c3ccc([N+](=O)[O-])cc3)o2)C(=O)N1", "note": "[Dantrolene sodium salt]", "AQP5-HiBiT luminescence": 0.792}
{"compound": "CC(O)(P(=O)(O)O)P(=O)(O)O", "note": "[Etidronate]", "AQP5-HiBiT luminescence": 1.02}
{"compound": "CN(CCOc1ccc(CC2SC(=O)NC2=O)cc1)c1ccccn1", "note": "(stereo not drawn) [Rosiglitazone maleate]", "AQP5-HiBiT luminescence": 0.676}
{"compound": "Oc1ccc(OCc2ccccc2)cc1", "note": "[Monobenzone]", "AQP5-HiBiT luminescence": 0.467}
